Measured values from publication PMC3509445 (Biology Open, 2012).

Molecular target: ThioHis-VHL30 (full-length VHL30 thioredoxin-His fusion protein) (UniProt P40337-1)
Test: pull-down

binding result: binds
B1: GST-TLX FL (natural protein)
chain: MSKPAGSTSRILDIPCKVCGDRSSGKHYGVYACDGCSGFFKRSIRRNRTYVCKSGNQGGCPVDKTHRNQCRACRLKKCLEVNMNKDAVQHERGPRTSTIRKQVALYFRGHKEDNGAAAHFPSTALPAPAFFTAVTQLEPHGLELAAVSATPERQTLVSLAQPTPKYPHEVNGTPMYLYEVAT[here about 150 residues without letters]PSTIEEVFFKKTIGNVPITRLLSDMYKSSDI

binding result: binds
B2: GST-TLX ΔC[…] (domain or fragment)
chain: MSKPAGSTSRILDIPCKVCGDRSSGKHYGVYACDGCSGFFKRSIRRNRTYVCKSGNQGGCPVDKTHRNQCRACRLKKCLEVNMNKDAVQHERGPRTSTIRKQVALYFRGHKEDNGAAAHFPSTALPAPAFFTAVTQLEPHGLELAAVSATPERQTLVSLAQPTPKYPHEVNGTPMYLYEVAT[here about 150 residues without letters]

Each block holds one binder with its values, some of them ahead of it.
